Results on 64 compounds are retold here after PubChem BioAssay AID1956 (SRMLSC, 2009).

One may read the viability as a read-out of living cells in per cent, often relative to untreated cells.

Some of the results follow. These are further read-outs of the screen, such as a control signal, another cell line or another target. No call is given for them.

The nature of the test: compounds boosting herpes simplex virus growth – fold increase, host cell viability (AID 1956). Note: tested in PC3 cells. Particulars: HSV replication augmentation in cells; fold increase: measured here: primary screen fold increase 10 uM, at 10 µM, stronger effect = higher value; viability: measured here: host cell viability series, at 25 µM, stronger effect = lower value.
Turning to `CC(C)Oc1ncnc2c1[nH]c1ccccc12`, the fold increase amounted to 1.42 and the viability is 25.1%. With `COc1ccc(OC)c(C2C3CN(C(C)C)CC=C3C(C#N)=C(N)C2(C#N)C#N)c1` (configuration not stated), the fold increase was determined as 1.44. `O=C1/C(=C/c2ccc(O)c(O)c2)SC(=S)N1Nc1ccccc1`: the fold increase is 3 and the viability was determined as 80%. For `CCOC(=O)CN1C(=O)S/C(=C/C=C/c2ccc(N(C)C)cc2)C1=O`, in that order: 2.36 and 95.9%.

On to `CCCCOc1ccc(CNn2c(C)nc3ccccc3c2=O)cc1`, for which the fold increase came out at 1.51 and the viability came to 97.8%. For `N#CC(c1nc2ccccc2nc1N1CCCC1)S(=O)(=O)c1ccccc1` (configuration not stated), in that order: 1.38 and 99%. As to `NC(=O)CC1Nc2cccc3cccc(c23)NC1=O` (configuration not stated), the fold increase was 1.36. Turning to `CCCN1C(=O)c2cccc3c(N4CCCCC4)ccc(c23)C1=O`, the fold increase was found to be 6.71 and the viability stood at 83.5%. On to `CC1SCC(NC(=O)c2ccc(Cl)cc2)CS1` (configuration not stated), for which the fold increase was 1.32. For `COc1ccc(C2C(C(C)=O)=C(C)N=c3s/c(=C\c4cc(C)n(C)c4C)c(=O)n32)c(OC)c1` (configuration not stated), the fold increase amounted to 2.22 and the viability is 91.1%. On to `Cc1nc(Cl)c2c(n1)NC1=C(O2)C(=O)CCC1`, for which the fold increase turned out to be 1.55. As to `CCOC(=O)c1c(-c2ccc(C)s2)csc1N`, the fold increase is 1.32 and the viability turned out to be 99.3%. In turn, `CN1C(=O)C(O)(CC(=O)c2ccccn2)c2cc(Br)ccc21` (configuration not stated) came in with a fold increase of 1.29. Consider `O=C(COc1ccc(S(=O)(=O)N2CCOCC2)cc1)N1CCCCCC1`, for which the fold increase is 1.4 and the viability amounted to 98.9%. The compound `O=C(Nc1ccc(F)cc1)OCCN1CCN(Cc2ccccc2)CCC1=O` registered a fold increase of 1.32. For `Cc1ccsc1/C=C1\Oc2cc(OCC(=O)c3ccccc3)ccc2C1=O`, the fold increase is 1.35 and the viability worked out at 102%.

`CCOC(=O)c1c(NC(=S)Nc2ccc(Cl)cc2)sc2c1CCN(C)C2`: the fold increase amounted to 1.78 and the viability was determined as 88.1%. The corresponding values for `O=C1S/C(=C\c2ccc(N3CCOCC3)o2)C(=O)N1Cc1c(F)cccc1Cl` are 4.93 and 82.7%. For `CCN1CCc2c(sc(NC(=O)Nc3ccc(Cl)c(Cl)c3)c2C(N)=O)C1`, in that order: 8.02 and 56.9%. For `CCCc1cc(=S)n2c([nH]c3ccccc32)c1C#N`, the fold increase worked out at 1.33 and the viability amounted to 79%. The corresponding values for `COc1cc2c3nnc(-c4ccc(F)cc4)c-3cn(Cc3cccc(F)c3)c2cc1OC` are 1.96 and 93.2%. For `c1ccc(CNc2cnccn2)cc1`, in that order: 1.48 and 99.6%. For `CCOC(=O)C1=C(C)N=c2s/c(=C/c3ccco3)c(=O)n2C1c1cccc(OC)c1` (configuration not stated), in that order: 1.36 and 94.2%. In the case of `c1ccc2[nH]c(CN3CCCCCC3)nc2c1`, the fold increase was determined as 1.58 and the viability came to 100%. For `O=C(Nc1ccccc1)C1=C(O)CC(c2ccco2)CC1=Nc1ccccc1` (configuration not stated), in that order: 1.58 and 95.5%. The compound `O=C(NC(=S)Nc1ccccc1N1CCCCC1)c1ccco1` had a fold increase of 5.48. For the compound `Cc1c(Cl)cccc1N(Cc1ccc(C(=O)O)cc1)S(=O)(=O)c1ccccc1`, the fold increase came out at 1.33 and the viability amounted to 94.7%. The corresponding values for `CN1c2ccccc2C(C)(C)[C@]12C=Cc1cc(O)ccc1O2` are 1.73 and 50%.

As to `CCOC(=O)CNc1nc(OCC#N)nc(N2CCOCC2)n1`, the fold increase is 1.42 and the viability amounted to 103%. As to `CCC(=O)Nc1ccc(NC(=O)CSc2nnc(C(C)C)n2C)cc1`, the fold increase came to 1.13.

Consider `CCCCCCc1cc2cc(-c3nnc(-c4ccccc4)o3)c(=O)oc2cc1O`, for which the fold increase was 7.73 and the viability is 56.1%.

For `CN1CCc2c(sc3nc(SCC(N)=O)n(-c4ccccc4)c(=O)c23)C1`, the fold increase is 1.34 and the viability turned out to be 97.9%.

For `O=C1/C(=C/c2cccs2)Sc2ccccc21`, the fold increase is 1.34. As to `COc1ccccc1CC(=O)Nc1ccc([N+](=O)[O-])cc1O`, the fold increase came to 2.16 and the viability is 90.5%.

Regarding `O=C1/C(=C/c2ccc(O)cc2)SC(=S)N1CC1CCCO1` (configuration not stated), the fold increase turned out to be 4.8 and the viability was determined as 80.4%. The corresponding values for `CCS(=O)(=O)N1N=C(c2cccc(NS(C)(=O)=O)c2)CC1c1ccccc1` (configuration not stated) are 1.97 and 93.2%. The corresponding values for `CCn1c2ccccc2c2c3ncc4cccn4c3ccc21` are 1.43 and 59.8%. The compound `COC(=O)c1c(Cl)c2n3ccccc3c(C)c(-c3ccccc3)c-2c1C(=O)OC` gave a fold increase of 1.32. In the case of `Cc1ccc(C)c(N2CCN(C(=O)c3cc4ccccn4n3)CC2)c1`, the fold increase worked out at 1.44 and the viability was 90.1%. For `Cc1cccc(S(=O)(=O)N2CN(Cc3ccco3)c3nc4ccccc4nc32)c1`, in that order: 1.5 and 101%.

Take `Cc1ccn2cc(CC(=O)O)nc2c1`: the fold increase was found to be 1.4 and the viability was determined as 102%. Compound `N#C/C(=C\c1ccc(-c2cccc(Cl)c2)o1)C(=O)Nc1cccc2cccnc12` came in with a fold increase of 1.12.

As for `CSc1nsc(/C=C/Nc2ccc(C)cc2)c1C#N`, the fold increase was determined as 1.61 and the viability was determined as 90.6%. The corresponding values for `Cc1ccc[n+](-c2nc([O-])sc2C=O)c1` are 1.39 and 93.4%. For `CN(C)/C=C(\C#N)C(=O)Nc1ccc(O)cc1F`, in that order: 1.34 and 89.7%. In the case of `CN1C(=CC=C2C=C(I)C(=O)C(I)=C2)C(C)(C)c2ccccc21`, the fold increase worked out at 3.3 and the viability came out at 72.1%.

`Cc1ccc(S(=O)(=O)NNC(=S)NC(C)(C)C)cc1` returned a fold increase of 1.32. In the case of `CC[n+]1c(/C=C/C=C/N(C(C)=O)c2ccccc2)sc2ccccc21`, the fold increase worked out at 2.79 and the viability was 76.2%. The corresponding values for `CCOC(=O)/C=c1\s/c(=C\c2c(OC)ccc3ccccc23)c(=O)n1CC(=O)NCC1CCCO1` (configuration not stated) are 2.23 and 47.4%. Regarding `C=CCSc1nc(N)c(C(=O)Nc2ccccc2OC)cc1C(=O)Nc1ccccc1`, the fold increase worked out at 1.17. `OCCCc1nc2n(n1)C(c1ccccc1Cl)C=C(c1cccs1)N2` (configuration not stated): the fold increase is 1.47 and the viability was 97.4%.

Regarding `CCN(CC)c1ccc2cc(NC(=O)CCC(=O)O)c(=O)oc2c1`, the fold increase turned out to be 1.64 and the viability turned out to be 97.3%. For the compound `CNC(=O)/C(C#N)=C/c1ccc(-c2nc3ccccc3s2)o1`, the fold increase is 1.45. Consider `CC(=O)Oc1cc2cccc(OC(C)=O)c(=O)c2c(OC(C)=O)c1OC(C)=O`, for which the fold increase turned out to be 1.4 and the viability is 79.2%. For `COc1cc(/C=C2\SC(=S)N(NS(=O)(=O)c3ccc(C)cc3)C2=O)ccc1O`, in that order: 7.81 and 96.2%. `CCNC(=O)COC(=O)c1cc(-c2ccco2)nc2ccccc12` registered a fold increase of 1.32. Take `Cc1sc2ncn(CC(=O)Nc3cccc(S(N)(=O)=O)c3)c(=O)c2c1-c1ccccc1`: the fold increase is 1.38 and the viability was found to be 94.9%.

The compound `CCOC(=O)N1CCc2c(sc(NC(=O)CN(CC)CC)c2C#N)C1` came in with a fold increase of 1.32. For `CCOC(=O)c1ccc(NC(=O)Cn2cc3c(n2)CCC(C)C3)cc1` (configuration not stated), the fold increase was 1.33 and the viability was found to be 104%. For `O=C(CN1CCC2(CC1)OCCO2)c1ccc2cc[nH]c2c1`, the fold increase amounted to 1.38 and the viability was determined as 98.5%.

Regarding `N#Cc1cc2ccccc2nc1SCc1ccccn1`, the fold increase worked out at 1.55 and the viability is 87.6%. Consider `CCOc1cc([N+](=O)[O-])cc2c1C(=O)Nc1ccccc1O2`, for which the fold increase came out at 1.45 and the viability stood at 96.3%. For `COc1cc(/C=C(\C#N)c2nc3ccccc3[nH]2)cc(OC)c1O`, in that order: 9.25 and 86.8%. For `Nc1c(C(=O)N/N=C/c2ccccc2Cl)oc2nc(-c3ccccc3)cc(-c3ccco3)c12`, in that order: 1.34 and 95.6%.
